These results are taken from paper PMC12497685, “Anticoronavirus Isoquinoline Alkaloids: Unraveling the Secrets of Their Structure–Activity Relationship” (Influenza and Other Respiratory Viruses, 2025).

This test relates to HCoV‐229E. The test is classed as cell-based.

In the case of `O[C@@H]1Cc2cc3c(cc2[C@@H]2NCc4c(ccc5c4OCO5)[C@H]12)OCO3` [Compound 48, norchelidonine], the “activity against HCoV‐229E infection (in words)” value (from here on “activity”) is listed as “effectively protected all surviving cells from infection”. (−)‐O‐methylcaryachine [Compound 35]: the “activity” value is “inactive”. In the case of `COc1cc2c(cc1OC)C1Cc3ccc(OC)c(O)c3C(C2)N1C` (stereo not drawn) [Compound 24, (−)‐platycerine], the “activity” value is “inactive”. With `CO[C@@H]1C=C[C@@]23c4cc5c(cc4CN(C[C@@H]2O)[C@H]3C1)OCO5` [Compound 3, (+)‐haemanthamine], the “activity” value is reported as “effectively protected all surviving cells from infection”. For the molecule `COc1cc2c(cc1O)[C@@H]1Cc3cc4c(cc3[C@H](C2)N1C)OCO4` [Compound 34, (−)‐caryachine], the “activity” value is “inactive”.

For the molecule `COc1ccc2cc3n(c(=O)c2c1OC)CCc1cc2c(cc1-3)OCO2` [Compound 22, 8‐oxoberberine], the “activity” value was “no activity”. Then `COc1cc2c(cc1OC)C1Cc3cc(OC)c(OC)cc3[C@H](C2)N1C` [Compound 23, argemonine], with “inactive”. Consider `COc1ccc2c(c1OC)[C@@H]1Cc3cc4c(cc3[C@H](C2)N1C)OCO4` [Compound 36, O‐methylneocarychine], for which the “activity” value was “inactive”.
